# Laboratory results as given in the supplement of paper PMC8728848.
# The other results are listed elsewhere or left out.
# B1: B725 (Bifidobacterium sp) (protein)
# chain: MNNTTRAVIATAAIGALLIPLAGCGNTTTSSGKTELTVWSWDASIDRAAKSFMKANPDITVKVSNVGSTEETYTALNNAAQAGSGLPDVTLIEYLAIPQFVHSDTLMDLSKVYNTAKLKDTFTPGTWNSVNINGGLYAMPADSGPMAYFYDKDVFDKAGISEPPTTWDEFYEDAKKIRATGSYITSDSGDAGLFNAMMWAMGGHAYKLNDDKLTINIAKDKGAQRFMDLWQKMRDEDLIDVHTKTWTDDWMKSLGDGSIASLISGAWMANNLLQGVPQATGKFRVALLPTIDGTPINGEYGGSGLAITKKIPDGKLDAAKKFVEYVTTNDEGIDARVSNGSFPATTKTLNQKDFLAKTTLRNTDGSDNEFFGGQKYNEIFSQAAKDVTGKWEFLPFEPYARSVYNDNMGSFFAGKTSFRTAADNWQKALKDYAKDQGFTVQ
# Experiments:
# Assay in all cases: glycan array binding signal (z-score within array); higher = stronger binding
# Settings in all cases: glycan notation: IUPAC condensed, linker removed
# [1] = molecular target: Fuc(a1-3)[Gal3S(b1-4)]GlcNAc6S
# Summary of the method: (§1)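 The binding signal is a Z-score computed within each array and averaged over linkers. Arrays of the same protein sequence at different concentrations or buffers were also averaged together. Data originate from 3228 arrays in the Consortium for Functional Glycomics database, kept only where the protein sequence was available.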
# [2] = molecular target: Fuc(a1-3)[GalNAc(b1-4)]GlcNAc
# Summary of the method: as §1
# [3] = molecular target: Fuc(a1-3)[GalNAc(b1-4)]GlcNAc6S
# Summary of the method: as §1
# Fuc(a1-4)GlcNAc = molecular target: Fuc(a1-4)GlcNAc
# Summary of the method: as §1
# Fuc(b1-3)GlcNAc = molecular target: Fuc(b1-3)GlcNAc
# Summary of the method: as §1
# Gal(a1-2)Gal = molecular target: Gal(a1-2)Gal
# Summary of the method: as §1
# Gal(a1-3)Gal = molecular target: Gal(a1-3)Gal
# Summary of the method: as §1
# Gal(a1-3)Gal(b1-3)GlcNAc = molecular target: Gal(a1-3)Gal(b1-3)GlcNAc
# Summary of the method: as §1
# [4] = molecular target: Gal(a1-3)Gal(b1-3)GlcNAc(b1-2)Man
# Summary of the method: as §1
# [5] = molecular target: Gal(a1-3)Gal(b1-3)GlcNAc(b1-2)Man(a1-3)[Gal(a1-3)Gal(b1-3)GlcNAc(b1-2)Man(a1-6)]Man(b1-4)GlcNAc(b1-4)GlcNAc
# Summary of the method: as §1
# [6] = molecular target: Gal(a1-3)Gal(b1-3)GlcNAc(b1-3)GalNAc
# Summary of the method: as §1
# [7] = molecular target: Gal(a1-3)Gal(b1-3)GlcNAc(b1-6)GalNAc
# Summary of the method: as §1
# [8] = molecular target: Gal(a1-3)Gal(b1-3)[Fuc(a1-4)]GlcNAc(b1-2)Man(a1-3)[Gal(a1-3)Gal(b1-3)[Fuc(a1-4)]GlcNAc(b1-2)Man(a1-6)]Man(b1-4)GlcNAc(b1-4)GlcNAc
# Summary of the method: as §1
# Gal(a1-3)Gal(b1-4)Glc = molecular target: Gal(a1-3)Gal(b1-4)Glc
# Summary of the method: as §1
# Gal(a1-3)Gal(b1-4)GlcNAc = molecular target: Gal(a1-3)Gal(b1-4)GlcNAc
# Summary of the method: as §1
# [9] = molecular target: Gal(a1-3)Gal(b1-4)GlcNAc(b1-2)Man
# Summary of the method: as §1
# [10] = molecular target: Gal(a1-3)Gal(b1-4)GlcNAc(b1-2)Man(a1-3)[Gal(a1-3)Gal(b1-4)GlcNAc(b1-2)Man(a1-6)]Man(b1-4)GlcNAc(b1-4)GlcNAc
# Summary of the method: as §1
# [11] = molecular target: Gal(a1-3)Gal(b1-4)GlcNAc(b1-3)GalNAc
# Summary of the method: as §1
# [12] = molecular target: Gal(a1-3)Gal(b1-4)GlcNAc(b1-6)GalNAc
# Summary of the method: as §1
# [13] = molecular target: Gal(a1-3)Gal(b1-4)[Fuc(a1-3)]GlcNAc
# Summary of the method: as §1
# [14] = molecular target: Gal(a1-3)Gal(b1-4)[Fuc(a1-3)]GlcNAc(b1-2)Man(a1-3)[Gal(a1-3)Gal(b1-4)[Fuc(a1-3)]GlcNAc(b1-2)Man(a1-6)]Man(b1-4)GlcNAc(b1-4)GlcNAc
# Summary of the method: as §1
# Gal(a1-3)GalNAc = molecular target: Gal(a1-3)GalNAc
# Summary of the method: as §1
# [15] = molecular target: Gal(a1-3)[Gal(a1-4)]Gal(b1-4)GlcNAc
# Summary of the method: as §1
# [16] = molecular target: Gal(a1-4)Gal(b1-3)GlcNAc(b1-2)Man(a1-3)[Gal(a1-4)Gal(b1-3)GlcNAc(b1-2)Man(a1-6)]Man(b1-4)GlcNAc(b1-4)GlcNAc
# Summary of the method: as §1
# Gal(a1-4)Gal(b1-4)Glc = molecular target: Gal(a1-4)Gal(b1-4)Glc
# Summary of the method: as §1
# Gal(a1-4)Gal(b1-4)GlcNAc = molecular target: Gal(a1-4)Gal(b1-4)GlcNAc
# Summary of the method: as §1
# [17] = molecular target: Gal(a1-4)Gal(b1-4)GlcNAc(b1-2)Man(a1-3)[Gal(a1-4)Gal(b1-4)GlcNAc(b1-2)Man(a1-6)]Man(b1-4)GlcNAc(b1-4)GlcNAc
# Summary of the method: as §1
# [18] = molecular target: Gal(a1-4)Gal(b1-4)GlcNAc(b1-3)Gal(b1-4)Glc
# Summary of the method: as §1
# Gal(a1-4)GlcNAc = molecular target: Gal(a1-4)GlcNAc
# Summary of the method: as §1
# Gal(a1-6)Glc = molecular target: Gal(a1-6)Glc
# Summary of the method: as §1
# Gal(b1-2)Gal = molecular target: Gal(b1-2)Gal
# Summary of the method: as §1
# Gal(b1-3)Gal = molecular target: Gal(b1-3)Gal
# Summary of the method: as §1
# Gal(b1-3)Gal(b1-4)GlcNAc = molecular target: Gal(b1-3)Gal(b1-4)GlcNAc
# Summary of the method: as §1
# Gal(b1-3)GalNAc = molecular target: Gal(b1-3)GalNAc
# Summary of the method: as §1
# [19] = molecular target: Gal(b1-3)GalNAc(a1-3)[Fuc(a1-2)]Gal(b1-4)Glc
# Summary of the method: as §1
# [20] = molecular target: Gal(b1-3)GalNAc(a1-3)[Fuc(a1-2)]Gal(b1-4)GlcNAc
# Summary of the method: as §1
# Gal(b1-3)GalNAc(b1-3)Gal = molecular target: Gal(b1-3)GalNAc(b1-3)Gal
# Summary of the method: as §1
binder,measurement,setting,value
B1,glycan array binding signal (z-score),[1],-0.2
same,glycan array binding signal (z-score),[2],-0.205
same,glycan array binding signal (z-score),[3],-0.229
same,glycan array binding signal (z-score),Fuc(a1-4)GlcNAc,-0.228
same,glycan array binding signal (z-score),Fuc(b1-3)GlcNAc,-0.226
same,glycan array binding signal (z-score),Gal(a1-2)Gal,-0.225
same,glycan array binding signal (z-score),Gal(a1-3)Gal,-0.225
same,glycan array binding signal (z-score),Gal(a1-3)Gal(b1-3)GlcNAc,-0.21
same,glycan array binding signal (z-score),[4],-0.205
same,glycan array binding signal (z-score),[5],-0.212
same,glycan array binding signal (z-score),[6],-0.205
same,glycan array binding signal (z-score),[7],-0.206
same,glycan array binding signal (z-score),[8],-0.181
same,glycan array binding signal (z-score),Gal(a1-3)Gal(b1-4)Glc,-0.201
same,glycan array binding signal (z-score),Gal(a1-3)Gal(b1-4)GlcNAc,-0.227
same,glycan array binding signal (z-score),[9],-0.214
same,glycan array binding signal (z-score),[10],-0.195
same,glycan array binding signal (z-score),[11],-0.225
same,glycan array binding signal (z-score),[12],-0.219
same,glycan array binding signal (z-score),[13],-0.225
same,glycan array binding signal (z-score),[14],-0.192
same,glycan array binding signal (z-score),Gal(a1-3)GalNAc,-0.22
same,glycan array binding signal (z-score),[15],-0.195
same,glycan array binding signal (z-score),[16],-0.2
same,glycan array binding signal (z-score),Gal(a1-4)Gal(b1-4)Glc,-0.205
same,glycan array binding signal (z-score),Gal(a1-4)Gal(b1-4)GlcNAc,-0.217
same,glycan array binding signal (z-score),[17],-0.156
same,glycan array binding signal (z-score),[18],0.277
same,glycan array binding signal (z-score),Gal(a1-4)GlcNAc,-0.214
same,glycan array binding signal (z-score),Gal(a1-6)Glc,-0.232
same,glycan array binding signal (z-score),Gal(b1-2)Gal,-0.224
same,glycan array binding signal (z-score),Gal(b1-3)Gal,-0.201
same,glycan array binding signal (z-score),Gal(b1-3)Gal(b1-4)GlcNAc,-0.214
same,glycan array binding signal (z-score),Gal(b1-3)GalNAc,-0.207
same,glycan array binding signal (z-score),[19],-0.157
same,glycan array binding signal (z-score),[20],-0.218
same,glycan array binding signal (z-score),Gal(b1-3)GalNAc(b1-3)Gal,-0.164
